Experimental findings from a collection of fitness landscapes (doi:10.1126/science.1257360) are described below.

First the molecules themselves.
B1: PhoQ; a variant is named by its letters at X, in order, P23837 (parent)
chain: MKKLLRLFFPLSLRVRFLLATAAVVLVLSLAYGMVALIGYSVSFDKTTFRLLRGESNLFYTLAKWENNKLHVELPENIDKQSPTMTLIYDENGQLLWAQRDVPWLMKMIQPDWLKSNGFHEIEADVNDTSLLLSGDHSIQQQLQEVREDDDDAEMTHSVAVNVYPATSRMPKLTIVVVDTIPVELKSSYMVWSWFIYVLSANLLLVIPLLWVAAWWSLRPIEALAKEVRELEEHNRELLNPATTRELTSLVRNLNRLLKSERERYDKYRTTLTDLTHSLKTPLXXLQXXLRSLRSEKMSVSDAEPVMLEQISRISQQIGYYLHRASMRGGTLLSRELHPVAPLLDNLTSALNKVYQRKGVNISLDISPEISFVGEQNDFVEVMGNVLDNACKYCLEFVEISARQTDEHLYIVVEDDGPGIPLSKREVIFDRGQRVDTLRPGQGVGLAVAREITEQYEGKIVAGESMLGGARMEVIFGRQHSAPKDE

The other results are listed elsewhere or left out.

This assay covers variants of B1. As to the kind of experiment: enrichment ratio after two sorts for PhoP signalling (ratio (wild type AVST 3.29)); higher = more functional. The settings on record: with PhoP (E. coli).
On to ADII, for which the enrichment ratio stood at 1.41.

With TKMM, the enrichment ratio came out at 31.6. Consider NLYW, for which the enrichment ratio is at most 0.25. For the variant WQHF, the enrichment ratio is at most 0.25. The value for QLTV was at most 0.25. For ICYM, the enrichment ratio was at most 0.25. For the variant FQTQ, the enrichment ratio was at most 0.25. On to ISMA, for which the enrichment ratio is at most 0.25. As to GELK, the enrichment ratio is at most 0.25. For TPEF the value was at most 0.25. With RVEG, the enrichment ratio is at most 0.25. With PTCF, the enrichment ratio was at most 0.25. For the variant YSRM, the enrichment ratio was at most 0.25.

On to KRSG, for which the enrichment ratio was at most 0.25. Regarding FTME, the enrichment ratio was determined as 2.04.

In the case of SNTH, the enrichment ratio was 7.23. YMHE: the enrichment ratio is at most 0.25. For THES the value was at most 0.25; for RFMD, at most 0.25; for HLWA, at most 0.25. For the variant QKST, the enrichment ratio was at most 0.25.

With SMLM, the enrichment ratio amounted to 7.16. Turning to KCRH, the enrichment ratio is at most 0.25. Consider WSLN, for which the enrichment ratio is at most 0.25.

For the variant KMRM, the enrichment ratio was at most 0.25.

For the variant SHSL, the enrichment ratio was found to be 0.469. KIPS: the enrichment ratio is at most 0.25. On to INPG, for which the enrichment ratio is at most 0.25.

On to PDFM, for which the enrichment ratio was at most 0.25. In the case of ACSQ, the enrichment ratio turned out to be 2.76. As for SGCD, the enrichment ratio is at most 0.25. On to ENRP, for which the enrichment ratio is at most 0.25. Take EIAC: the enrichment ratio was at most 0.25. As for PPYA, the enrichment ratio was at most 0.25. Turning to LFIT, the enrichment ratio is at most 0.25. With ISFN, the enrichment ratio was at most 0.25. On to FTQI, for which the enrichment ratio was at most 0.25.

In the case of KETF, the enrichment ratio was at most 0.25. On to KSDI, for which the enrichment ratio is at most 0.25.

For the variant YQPF, the enrichment ratio is at most 0.25. As to NQPC, the enrichment ratio was at most 0.25. Take SDGP: the enrichment ratio is at most 0.25. In the case of IGSP, the enrichment ratio is at most 0.25. As to TKDQ, the enrichment ratio was at most 0.25. For PVNH the value was at most 0.25; for YTHI, at most 0.25; for HPVF, at most 0.25. For the variant FAPV, the enrichment ratio is at most 0.25. For AIIY the value was at most 0.25; for SIVD, at most 0.25. In the case of VRLD, the enrichment ratio was at most 0.25. The value for FCGK was at most 0.25.

Regarding TVST, the enrichment ratio was 7.94. For ELIY the value was at most 0.25; for IFYA, at most 0.25.

Consider GEVF, for which the enrichment ratio is at most 0.25. The value for ARYK was at most 0.25; that for FEWN was at most 0.25. Turning to HGTQ, the enrichment ratio was at most 0.25.

Turning to SPVR, the enrichment ratio is at most 0.25.

For the variant GQIQ, the enrichment ratio came out at 14.9.

As for IWWY, the enrichment ratio is at most 0.25. For PGGP the value was at most 0.25; for EEGL, at most 0.25. In the case of MARY, the enrichment ratio was at most 0.25. With PCIG, the enrichment ratio was at most 0.25. Consider YRGM, for which the enrichment ratio was at most 0.25. Consider FLVN, for which the enrichment ratio is at most 0.25.

Regarding WQRD, the enrichment ratio is at most 0.25. With WKFE, the enrichment ratio was at most 0.25. TFPQ: the enrichment ratio was at most 0.25. For VDMM, the enrichment ratio was at most 0.25. For MSGN, the enrichment ratio is at most 0.25.

With HESN, the enrichment ratio was at most 0.25. Take LDNW: the enrichment ratio is at most 0.25. In the case of HNCN, the enrichment ratio is at most 0.25. The value for PCYG was at most 0.25; that for AGLG was 9.25; that for NFEE was at most 0.25. On to SLTA, for which the enrichment ratio was found to be 1.44.

Turning to AREL, the enrichment ratio was at most 0.25.

As to GKTP, the enrichment ratio is at most 0.25. The value for KKSR was at most 0.25.

Take KIMC: the enrichment ratio is at most 0.25.

Regarding LYFT, the enrichment ratio was at most 0.25.

On to AAEL, for which the enrichment ratio is at most 0.25.

As for KMPR, the enrichment ratio is at most 0.25.

With RKDI, the enrichment ratio is at most 0.25. Regarding HHPH, the enrichment ratio was at most 0.25. For MIIP, the enrichment ratio was at most 0.25.

NAVN: the enrichment ratio was at most 0.25.

As to GMKM, the enrichment ratio is at most 0.25. For YWIS the value was at most 0.25; for ALQV, at most 0.25. Take TVAR: the enrichment ratio was 7.02. Regarding KRRN, the enrichment ratio is at most 0.25. As to HEYD, the enrichment ratio was at most 0.25. The value for STWS was at most 0.25; that for VYQG was at most 0.25.

Turning to MDTN, the enrichment ratio was at most 0.25. With MITG, the enrichment ratio is at most 0.25. For WTFA, the enrichment ratio was at most 0.25. As for MDKD, the enrichment ratio was at most 0.25. Turning to ITCS, the enrichment ratio is at most 0.25. With GLHV, the enrichment ratio is at most 0.25. In the case of RIWD, the enrichment ratio was at most 0.25. Take TFLP: the enrichment ratio is at most 0.25. As for PADT, the enrichment ratio was at most 0.25.

As to NKYK, the enrichment ratio was at most 0.25.

As to SGMG, the enrichment ratio turned out to be 0.699. For WCFN, the enrichment ratio was at most 0.25.

Take MKNQ: the enrichment ratio was at most 0.25.

Turning to WEFL, the enrichment ratio is at most 0.25. For the variant KVDN, the enrichment ratio is at most 0.25. KSDG: the enrichment ratio is at most 0.25. For TTPI the value was 4.3. On to NEHH, for which the enrichment ratio is at most 0.25. For RDGH, the enrichment ratio was at most 0.25. For REGA the value was at most 0.25; for QVFI, at most 0.25. With PHLL, the enrichment ratio is at most 0.25. For the variant EHQR, the enrichment ratio is at most 0.25.

On to QTFM, for which the enrichment ratio was 7.68.

MFIV: the enrichment ratio was at most 0.25. For the variant PHPT, the enrichment ratio was at most 0.25.

On to ECMH, for which the enrichment ratio was at most 0.25. In the case of HSQV, the enrichment ratio was at most 0.25. As to MDMS, the enrichment ratio was at most 0.25.

Take MMPL: the enrichment ratio is at most 0.25. As to NIMA, the enrichment ratio was at most 0.25. In the case of FQGC, the enrichment ratio was at most 0.25. For NKVC, the enrichment ratio is at most 0.25.

Take KLWE: the enrichment ratio is at most 0.25. For TNVR the value was at most 0.25; for SRRD, 1.13. Take GLQG: the enrichment ratio was at most 0.25. For the variant VCIR, the enrichment ratio was at most 0.25.

As for SLMC, the enrichment ratio stood at 3.3. FRTR: the enrichment ratio is at most 0.25.

For the variant YRLA, the enrichment ratio is at most 0.25. In the case of MAKT, the enrichment ratio was at most 0.25.

Turning to STSG, the enrichment ratio stood at 8.56. For HFAG the value was at most 0.25; for RRRS, at most 0.25; for QQFF, 5.6.

For DHAY, the enrichment ratio is at most 0.25. Take RLEN: the enrichment ratio was at most 0.25. For ESFE the value was at most 0.25; for FQMI, at most 0.25; for HQQY, at most 0.25. Turning to PAEY, the enrichment ratio is at most 0.25. On to DTYE, for which the enrichment ratio is at most 0.25. For SFLG the value was 10.9.
